Drawing on the supplement of paper PMC10369915, this text covers enrichment score for 18 molecules.

The other results are listed elsewhere or left out. No stated cut-off is given here; in the data, active = 3.2 or more and inactive = the rest. Only a few entries rise above the background.
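Further: displayed peptides selected on beads carrying the immobilized SH2 domain, with library peptides lacking any tyrosine serving as negative controls.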

The target of the first assay is SHP2 C-SH2 domain E139D. Description: enrichment score (SH2-bound / input frequency) (ratio); bacterial display of known human phosphotyrosine sites (pTyr-Var adds point mutants) read by sequencing; higher = stronger binding; tyrosines were phosphorylated by kinases first. Conditions: peptide library: Human pTyr.
As to TERIRLPYELQKMPN [HS74L_HUMAN_89], the enrichment score was inactive: 1.07.
The same measure, in the same setting: then AQDLARSYGIPAIET [HRAS_HUMAN_137_YA], with inactive: 0.831.
With EIEACQVYFTYDPYS [IL2RB_HUMAN_381], the enrichment score was inactive: 1.64.
On the same count and under the same terms, then KLKKEDIYAVEIVGG [HSP74_HUMAN_336], with inactive: 1.44; and DVAETDAYRKGGKGL [INSRR_HUMAN_1146_YA], with inactive: 0.772; and SKPPATDYVSTRWAR [ICK_HUMAN_159_YA], with inactive: 1.46.
Same read-out and setting: then AEKSNLAYDIVQLPT [HSP74_HUMAN_89], with inactive: 0.708; and YLKIRRSYALVSLSF [INSR_HUMAN_401], with inactive: 1.65; and SAEEHIPYTHMNGGK [INSR_HUMAN_1361_YA], with inactive: 0.948.
Still for that read-out and setting: then VELDLHSYDLGIENR [IDHC_HUMAN_42], with inactive: 0.557; and GEEELSNYICMGGKG [IRS1_HUMAN_465], with inactive: 1.1; and FREVSFYYSEENKLP [IGF1R_HUMAN_1281], with inactive: 1.1.
In the case of FREVSFAYSEENKLP [IGF1R_HUMAN_1281_YA], the enrichment score is inactive: 1.1.
Same read-out and setting: as for ELLEQQKYTVTVDAW [IKBKB_HUMAN_199_YA], the figure is inactive: 1.29.
The same measure, in the same setting: then AASSNPEYLSASDVF [INSR_HUMAN_999_YA], with inactive: 0.637; and KENQKHIYYITGETK [HS90A_HUMAN_492], with inactive: 1.83.
On the same count and under the same terms, as for EVLEDNDYGRAVDWW [AKT1_HUMAN_326], the figure is inactive: 1.11; as for TIPVDGDYFTFTRHE [AL1A2_HUMAN_168], inactive: 1.23.

A further assay concerns the target SHP2 C-SH2 domain wild-type. The description is as above. Conditions: peptide library: Human pTyr.
Take TERIRLPYELQKMPN [HS74L_HUMAN_89]: the enrichment score is inactive: 0.682.
On the same count and under the same terms, as for AQDLARSYGIPAIET [HRAS_HUMAN_137_YA], the figure is inactive: 0.645; as for EIEACQVYFTYDPYS [IL2RB_HUMAN_381], inactive: 1.22.
The same measure, in the same setting: as for KLKKEDIYAVEIVGG [HSP74_HUMAN_336], the figure is inactive: 1.15.
Still for that read-out and setting: as for DVAETDAYRKGGKGL [INSRR_HUMAN_1146_YA], the figure is inactive: 0.691.
For SKPPATDYVSTRWAR [ICK_HUMAN_159_YA], the enrichment score is inactive: 1.43.
Same read-out and setting: then AEKSNLAYDIVQLPT [HSP74_HUMAN_89], with inactive: 0.87; and YLKIRRSYALVSLSF [INSR_HUMAN_401], with inactive: 1.67.
Take SAEEHIPYTHMNGGK [INSR_HUMAN_1361_YA]: the enrichment score was inactive: 0.881.
Still for that read-out and setting: then VELDLHSYDLGIENR [IDHC_HUMAN_42], with inactive: 0.636; and GEEELSNYICMGGKG [IRS1_HUMAN_465], with inactive: 1.26.
The same measure, in the same setting: as for FREVSFYYSEENKLP [IGF1R_HUMAN_1281], the figure is inactive: 1.9; as for FREVSFAYSEENKLP [IGF1R_HUMAN_1281_YA], inactive: 0.687.
The same measure, in the same setting: then ELLEQQKYTVTVDAW [IKBKB_HUMAN_199_YA], with inactive: 1.02; and AASSNPEYLSASDVF [INSR_HUMAN_999_YA], with inactive: 0.592; and KENQKHIYYITGETK [HS90A_HUMAN_492], with inactive: 2.56.
Turning to EVLEDNDYGRAVDWW [AKT1_HUMAN_326], the enrichment score was inactive: 0.822.
Still for that read-out and setting: then TIPVDGDYFTFTRHE [AL1A2_HUMAN_168], with inactive: 0.814.

For the next assay, the target named is SHP2 N-SH2 domain L43F. The assay is described as above. Conditions: peptide library: Human pTyr.
Take TERIRLPYELQKMPN [HS74L_HUMAN_89]: the enrichment score is inactive: 0.675.
The same measure, in the same setting: then AQDLARSYGIPAIET [HRAS_HUMAN_137_YA], with inactive: 0.681; and EIEACQVYFTYDPYS [IL2RB_HUMAN_381], with inactive: 1.53; and KLKKEDIYAVEIVGG [HSP74_HUMAN_336], with inactive: 1.29.
In the case of DVAETDAYRKGGKGL [INSRR_HUMAN_1146_YA], the enrichment score was inactive: 0.847.
The same measure, in the same setting: then SKPPATDYVSTRWAR [ICK_HUMAN_159_YA], with inactive: 1.46; and AEKSNLAYDIVQLPT [HSP74_HUMAN_89], with inactive: 0.749.
In the case of YLKIRRSYALVSLSF [INSR_HUMAN_401], the enrichment score is inactive: 1.65.
The same measure, in the same setting: then SAEEHIPYTHMNGGK [INSR_HUMAN_1361_YA], with inactive: 0.709; and VELDLHSYDLGIENR [IDHC_HUMAN_42], with inactive: 1.66.
Still for that read-out and setting: as for GEEELSNYICMGGKG [IRS1_HUMAN_465], the figure is inactive: 1.01; as for FREVSFYYSEENKLP [IGF1R_HUMAN_1281], inactive: 1.61; as for FREVSFAYSEENKLP [IGF1R_HUMAN_1281_YA], inactive: 0.621.
Same read-out and setting: as for ELLEQQKYTVTVDAW [IKBKB_HUMAN_199_YA], the figure is inactive: 1.03; as for AASSNPEYLSASDVF [INSR_HUMAN_999_YA], inactive: 0.573.
In the case of KENQKHIYYITGETK [HS90A_HUMAN_492], the enrichment score was inactive: 1.87.
As for EVLEDNDYGRAVDWW [AKT1_HUMAN_326], the enrichment score is inactive: 1.04.
Same read-out and setting: then TIPVDGDYFTFTRHE [AL1A2_HUMAN_168], with inactive: 0.985.

In the next assay the target is SHP2 N-SH2 domain T42A. The assay is described as above. Conditions: peptide library: Human pTyr.
On to TERIRLPYELQKMPN [HS74L_HUMAN_89], for which the enrichment score is inactive: 0.686.
The same measure, in the same setting: then AQDLARSYGIPAIET [HRAS_HUMAN_137_YA], with inactive: 0.589.
In the case of EIEACQVYFTYDPYS [IL2RB_HUMAN_381], the enrichment score is inactive: 1.92.
On the same count and under the same terms, as for KLKKEDIYAVEIVGG [HSP74_HUMAN_336], the figure is inactive: 1.38; as for DVAETDAYRKGGKGL [INSRR_HUMAN_1146_YA], inactive: 0.724; as for SKPPATDYVSTRWAR [ICK_HUMAN_159_YA], inactive: 1.45.
For the molecule AEKSNLAYDIVQLPT [HSP74_HUMAN_89], the enrichment score was inactive: 0.817.
Same read-out and setting: as for YLKIRRSYALVSLSF [INSR_HUMAN_401], the figure is inactive: 1.77.
The same measure, in the same setting: as for SAEEHIPYTHMNGGK [INSR_HUMAN_1361_YA], the figure is inactive: 0.66; as for VELDLHSYDLGIENR [IDHC_HUMAN_42], inactive: 0.599; as for GEEELSNYICMGGKG [IRS1_HUMAN_465], inactive: 1.31.
On to FREVSFYYSEENKLP [IGF1R_HUMAN_1281], for which the enrichment score is inactive: 1.54.
On the same count and under the same terms, then FREVSFAYSEENKLP [IGF1R_HUMAN_1281_YA], with inactive: 0.837.
Still for that read-out and setting: as for ELLEQQKYTVTVDAW [IKBKB_HUMAN_199_YA], the figure is inactive: 1.17; as for AASSNPEYLSASDVF [INSR_HUMAN_999_YA], inactive: 0.418; as for KENQKHIYYITGETK [HS90A_HUMAN_492], inactive: 1.74.
Same read-out and setting: as for EVLEDNDYGRAVDWW [AKT1_HUMAN_326], the figure is inactive: 0.944.
In the case of TIPVDGDYFTFTRHE [AL1A2_HUMAN_168], the enrichment score was inactive: 0.994.

In the next assay the target is SHP2 N-SH2 domain T52S. The assay is described as above. Conditions: peptide library: Human pTyr.
Turning to TERIRLPYELQKMPN [HS74L_HUMAN_89], the enrichment score was inactive: 0.839.
On the same count and under the same terms, as for AQDLARSYGIPAIET [HRAS_HUMAN_137_YA], the figure is inactive: 0.64; as for EIEACQVYFTYDPYS [IL2RB_HUMAN_381], inactive: 1.57; as for KLKKEDIYAVEIVGG [HSP74_HUMAN_336], inactive: 1.29.
Same read-out and setting: as for DVAETDAYRKGGKGL [INSRR_HUMAN_1146_YA], the figure is inactive: 0.763.
Still for that read-out and setting: then SKPPATDYVSTRWAR [ICK_HUMAN_159_YA], with inactive: 1.3; and AEKSNLAYDIVQLPT [HSP74_HUMAN_89], with inactive: 0.732.
In the case of YLKIRRSYALVSLSF [INSR_HUMAN_401], the enrichment score was inactive: 1.55.
Still for that read-out and setting: as for SAEEHIPYTHMNGGK [INSR_HUMAN_1361_YA], the figure is inactive: 0.92.
For VELDLHSYDLGIENR [IDHC_HUMAN_42], the enrichment score is inactive: 1.16.
Still for that read-out and setting: as for GEEELSNYICMGGKG [IRS1_HUMAN_465], the figure is inactive: 1.14.
Regarding FREVSFYYSEENKLP [IGF1R_HUMAN_1281], the enrichment score is inactive: 1.44.
Turning to FREVSFAYSEENKLP [IGF1R_HUMAN_1281_YA], the enrichment score was inactive: 0.913.
The same measure, in the same setting: as for ELLEQQKYTVTVDAW [IKBKB_HUMAN_199_YA], the figure is inactive: 1.44; as for AASSNPEYLSASDVF [INSR_HUMAN_999_YA], inactive: 0.643; as for KENQKHIYYITGETK [HS90A_HUMAN_492], inactive: 2.04.
The same measure, in the same setting: then EVLEDNDYGRAVDWW [AKT1_HUMAN_326], with inactive: 0.844; and TIPVDGDYFTFTRHE [AL1A2_HUMAN_168], with inactive: 1.07.

The target of a further assay is SHP2 N-SH2 domain wild-type. Described as above. As to conditions: peptide library: Human pTyr.
As to TERIRLPYELQKMPN [HS74L_HUMAN_89], the enrichment score is inactive: 0.826.
The same measure, in the same setting: then AQDLARSYGIPAIET [HRAS_HUMAN_137_YA], with inactive: 0.637; and EIEACQVYFTYDPYS [IL2RB_HUMAN_381], with inactive: 1.74; and KLKKEDIYAVEIVGG [HSP74_HUMAN_336], with inactive: 1.4.
Same read-out and setting: then DVAETDAYRKGGKGL [INSRR_HUMAN_1146_YA], with inactive: 0.897; and SKPPATDYVSTRWAR [ICK_HUMAN_159_YA], with inactive: 1.58.
Same read-out and setting: as for AEKSNLAYDIVQLPT [HSP74_HUMAN_89], the figure is inactive: 0.859; as for YLKIRRSYALVSLSF [INSR_HUMAN_401], inactive: 1.58; as for SAEEHIPYTHMNGGK [INSR_HUMAN_1361_YA], inactive: 0.76.
As for VELDLHSYDLGIENR [IDHC_HUMAN_42], the enrichment score was inactive: 0.737.
Same read-out and setting: as for GEEELSNYICMGGKG [IRS1_HUMAN_465], the figure is inactive: 1.36.
Same read-out and setting: then FREVSFYYSEENKLP [IGF1R_HUMAN_1281], with inactive: 2.48; and FREVSFAYSEENKLP [IGF1R_HUMAN_1281_YA], with inactive: 0.879; and ELLEQQKYTVTVDAW [IKBKB_HUMAN_199_YA], with inactive: 1.44.
As for AASSNPEYLSASDVF [INSR_HUMAN_999_YA], the enrichment score was inactive: 0.576.
On the same count and under the same terms, as for KENQKHIYYITGETK [HS90A_HUMAN_492], the figure is inactive: 2.44; as for EVLEDNDYGRAVDWW [AKT1_HUMAN_326], inactive: 0.967; as for TIPVDGDYFTFTRHE [AL1A2_HUMAN_168], inactive: 1.31.
